Source: patent US20190194350A1 (UNIVERSITAT STUTTGART, published 2019)

Tests used:
[1] = biological target: T1, TRAIL-R2 on Colo205 and HCT-116 cells (UniProt O14763 56-440, limits assumed); assay: flow cytometry on Colo205 cells, which express HER3 and TRAIL receptors; the signal is not separated between the two targets
T1 construct: whole, on cells; also called cell surface expressed TRAIL-R2

[2] = biological target: T2, HER3 on HER3-expressing tumor cells (human, UniProt P21860 20-1342); assay: cell-based or functional assay
[3] = biological target: T2, HER3 on HER3-expressing tumor cells; assay: flow cytometry, HER3-positive A375 cells, anti-human IgG R-PE
[4] = biological target: T2, HER3 on HER3-expressing tumor cells; assay: cell-based or functional assay; remark: listed apart in the source
[5] = biological target: T3, HER3-ECD protein (Homo sapiens (Human), UniProt P21860 in part); assay: ELISA, immobilized HER3-ECD
T3 construct: also called receptor-ECD protein

[6] = biological target: T4, HER2-ECD protein (UniProt P04626 in part, limits assumed); assay: ELISA, immobilized HER2-ECD
T4 construct: extracellular domain

[7] = biological target: T5, HER3-His (HER3 aa 27-599 of the extracellular domain fused C-terminally with a hexahistidyl-tag) (human, UniProt P21860 in part); assay: ELISA, coated HER3-His
T5 construct: also called soluble His-tagged HER3; His-tagged extracellular domain of HER3; not shown: C-terminal hexahistidyl-tag

[8] = biological target: T2, HER3 on HER3-expressing tumor cells; assay: flow cytometry, FaDu cells (carry HER2 and HER3; bispecific, number not split between the two targets)
[9] = biological target: T6, HER3-Fc fusion comprising the extracellular domain (aa 27-599) of human HER3 (human, UniProt P21860 in part); assay: ELISA, coated HER3-Fc (aa 27-599), anti-His-HRP
T6 construct: also called HER3-Fc fusion protein; not shown: Fc part

B1: scFv3-43-Fc-scTRAIL (other)
chain: KDDDDKGGGGSGTQVQLQQSGPGLVKPSQTLSLTCAISGDSVSSNRAAWNWIRQSPSRGLEWLGRTYYRSKWYNDYAQSLKSRITINPDTPKNQFSLQLNSVTPEDTAVYYCARDGQLGLDALDIWGQGTMVTVSSGGGGSGGGGSGGGGSQAGLTQPPAVSVAPGQTASITCGRDNIGSRSVHWYQQKPGQAPVLVVYDDSDRPAGIPERFSGSNYENTATLTISRVEAGDEADYYCQVWGITSDHVVFGGGTKLTVLAAAGGSGG[no letters for human IgG1 Fc]GGSGGGSSGGGPQRVAAHITGTRGRSNTLSSPNSKNEKALGRKINSWESSRSGHSFLSNLHLRNGELVIHEKGFYYIYSQTYFRFQEEIKENTKNDKQMVQYIYKYTSYPDPILLMKSARNSCWSKDAEYGLYSIYQGGIFELKENDRIFVSVTNEHLIDMDHEASFFGAFLVGGGPQRVAAHITGTRGRSNTLSSPNSKNEKALGRKINSWESSRSGHSFLSNLHLRNGELVIHEKGFYYIYSQTYFRFQEEIKENTKNDKQMVQYIYKYTSYPDPILLMKSARNSCWSKDAEYGLYSIYQGGIFELKENDRIFVSVTNEHLIDMDHEASFFGAFLVGGGPQRVAAHITGTRGRSNTLSSPNSKNEKALGRKINSWESSRSGHSFLSNLHLRNGELVIHEKGFYYIYSQTYFRFQEEIKENTKNDKQMVQYIYKYTSYPDPILLMKSARNSCWSKDAEYGLYSIYQGGIFELKENDRIFVSVTNEHLIDMDHEASFFGAFLVG
notes: Dimeric through the Fc part; also called anti-HER3 scFv-Fc-scTRAIL fusion protein
binding result [1]: binds
cell death induction on Colo205, w/o blocking antibody, 650 nM BZB (EC50) [2]: 0.0067 nM
cell death induction on Colo205, w/o blocking antibody, w/o BZB (EC50) [2]: 0.031 nM
cell death induction on Colo205, with blocking antibody scFv3-43-Fc (200x molar excess), 650 nM BZB (EC50) [2]: 0.0326 nM
cell death induction on Colo205, with blocking antibody scFv3-43-Fc (200x molar excess), w/o BZB (EC50) [2]: 0.217 nM
EC50 [3]: 1.19 nM
cell death induction, A375, +BZB (EC50) [4]: 0.00072 nM
cell death induction, MeWo, +BZB (EC50) [4]: 0.00463 nM
cell death induction, Mel-Juso, +BZB (EC50) [4]: 0.001 nM
cell death induction, WM35, +BZB (EC50) [4]: 0.00017 nM
cell death induction, WM35, -BZB (EC50) [4]: 0.00496 nM
cell death induction, WM793, +BZB (EC50) [4]: 0.00039 nM
cell death induction, WM793, -BZB (EC50) [4]: 0.00425 nM
cell death induction, WM1366, +BZB (EC50) [4]: 0.00358 nM
cell death induction, WM1366, -BZB (EC50) [4]: 0.0482 nM

B2: scDb 2-35x3-43-Fc (bispecific antibody)
chain: QLVQSGAEVKKPGESLKISCKGSGYSFTSYWIGWVRQMPGKGLEWMGIIYPGDSDTRYSPSFQGQVTISADKSISTAYLQWSSLKASDTAMYYCARLGRSGSYYNYGMDVWGQGTTVTVSSGGGGSQAGLTQPPAVSVAPGQTASITCGRDNIGSRSVHWYQQKPGQAPVLVVYDDSDRPAGIPERFSGSNYENTATLTISRVEAGDEADYYCQVWGITSDHVVFGGGTKLTVLGGGGSGGRASGGGGSQVQLQQSGPGLVKPSQTLSLTCAISGDSVSSNRAAWNWIRQSPSRGLEWLGRTYYRSKWYNDYAQSLKSRITINPDTPKNQFSLQLNSVTPEDTAVYYCARDGQLGLDALDIWGQGTMVTVSSGGGGSQAVVTQEPSFSVSPGGTVTLTCGLSSGSVSSSYYPSWYQQTSGQPPRTLIYSTDTRSSGVPDRFSGSILGDKAALTITGAQADDESDYYCMLYMGSGISVFGGGTKLAVLAAAGGSGG[no letters for human IgG1 Fc]
notes: also called 2-35 x 3-43 scDb-Fc; scDb-Fc
EC50 [5]: 0.24 nM
EC50 [6]: ~1.5 nM

B3: scDb 4D5x3-43-Fc (bispecific antibody)
chain: [no letters for about 120 residues]GGGGSQAGLTQPPAVSVAPGQTASITCGRDNIGSRSVHWYQQKPGQAPVLVVYDDSDRPAGIPERFSGSNYENTATLTISRVEAGDEADYYCQVWGITSDHVVFGGGTKLTVLGGGGSGGRASGGGGSGGGGSQVQLQQSGPGLVKPSQTLSLTCAISGDSVSSNRAAWNWIRQSPSRGLEWLGRTYYRSKWYNDYAQSLKSRITINPDTPKNQFSLQLNSVTPEDTAVYYCARDGQLGLDALDIWGQGTMVTVSSGGGGS[no letters for about 100 residues]RAAAGGSGG[no letters for human IgG1 Fc]
notes: also called scDb 4D5x3-43-LL-Fc; scDb-Fc
EC50 [7]: 1.9 nM
EC50 [8]: 2.9 nM

B4: scDb4D5x3-43-LL (bispecific antibody)
chain: DAAQPAMA[no letters for about 120 residues]GGGGSQAGLTQPPAVSVAPGQTASITCGRDNIGSRSVHWYQQKPGQAPVLVVYDDSDRPAGIPERFSGSNYENTATLTISRVEAGDEADYYCQVWGITSDHVVFGGGTKLTVLGGGGSGGRASGGGGSGGGGSQVQLQQSGPGLVKPSQTLSLTCAISGDSVSSNRAAWNWIRQSPSRGLEWLGRTYYRSKWYNDYAQSLKSRITINPDTPKNQFSLQLNSVTPEDTAVYYCARDGQLGLDALDIWGQGTMVTVSSGGGGS[no letters for about 120 residues]
notes: Bivalent: one site for HER2 (4D5), one for HER3 (3-43); purified by IMAC and detected by anti-His antibody
EC50 [9]: 0.93 nM
